{"source": "patent US20090026122A1", "about": "“BIOCOMPATIBLE SOLID-PHASE MICROEXTRACTION COATINGS AND METHODS FOR THEIR PREPARATION” (Janusz, priority 2002, published 2009)", "tested_on": "human plasma proteins", "assay": "in vitro", "conditions": "human plasma (EDTA), Plasma Protein Binding %, 60 μm, human plasma vs PBS", "data": [{"smiles": "CN(C)C(=O)C(CCN1CCC(O)(c2ccc(Cl)cc2)CC1)(c1ccccc1)c1ccccc1", "note": "[Loperamide, loperamide]", "values": [{"measurement": "fraction unbound", "setting": "SPME coating PAN/C-18, 0.01″", "value": 0.04}, {"measurement": "fraction unbound", "setting": "SPME coating PAN/RP-amide, 0.01″", "value": 0.03}]}]}
